Laboratory results taken from EP4538286A1 (Adlai Nortye Biopharma Co., Ltd., dated 2025).

Legend:
human PD-L1 protein = molecular target: T1, human PD-L1 protein (human, UniProt Q9NZQ7 partial chain); test: ELISA, plate-coated human PD-L1
T1 construct: bought protein coated on the ELISA plate; also called human PDL1 antigen

[1] = molecular target: PD-L1 on TCR activator PD-L1-CHO cells (UniProt Q9NZQ7); test: cell-based or functional assay

human PD-L1 protein, sequence (Q9NZQ7 19-238 limits assumed): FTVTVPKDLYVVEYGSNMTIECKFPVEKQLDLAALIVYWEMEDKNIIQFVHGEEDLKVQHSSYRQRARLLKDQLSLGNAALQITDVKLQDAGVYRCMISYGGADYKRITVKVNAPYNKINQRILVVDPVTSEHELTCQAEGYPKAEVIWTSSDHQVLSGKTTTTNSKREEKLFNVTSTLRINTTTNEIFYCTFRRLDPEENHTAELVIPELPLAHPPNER

B1: Abs-427 (Fc fusion)
chain: VIHVTKEVKEVATLSCGHNVSVEELAQTRIYWQKNKKMVLTMMSGDMNIWPEYKNRTIFDITNNLSIVILELRPSDEGTYECVVLKYEKDAFKREHLAEVTLSVKAD[human IgG4 Fc not listed]
notes: human IgG4 Fc fusion; also called CD80 IgV mutant E35N/A71E-IgG4 Fc fusion
Binding strength @ 100nM (human PD-L1 protein): 400%
EC50 (human PD-L1 protein): 26.4 nM

B4: Abs-428 (Fc fusion)
chain: B1 chain with E71N
notes: human IgG4 Fc fusion; also called CD80 IgV mutant E35N/A71N-IgG4 Fc fusion
Binding strength @ 100nM (human PD-L1 protein): 400%
EC50 (human PD-L1 protein): 26.9 nM
EC50(nM), Jurkat-NFAT-Luc/CHO-PDL1 [1]: 4.2 nM
The highest induction relative to IgG control [1]: 200%

The next lines start with the values.

Binding strength @ 100nM (human PD-L1 protein): 700%
EC50 (human PD-L1 protein): 22.9 nM
B2: Abs-483 (Fc fusion)
chain: B1 chain with E71T
notes: human IgG4 Fc fusion; also called CD80 IgV mutant E35N/A71T-IgG4 Fc fusion

binding result (human PD-L1 protein): no binding
B3: Abs-429 (Fc fusion)
chain: B1 chain with E71Q
notes: human IgG4 Fc fusion; also called CD80 IgV mutant E35N/A71Q-IgG4 Fc fusion

Positions count from the first letter of the chain named. In names and notes the source's numbering stands. Each block holds one binder with its values, some of them ahead of it.
